In the supplement of paper PMC8728848:
The list shows a part of the results.

Key:
Experiment in all cases: glycan array binding signal (z-score within array); higher = stronger binding
Conditions in all cases: glycan notation: IUPAC condensed, linker removed
Fuc(a1-2)Gal = molecular target: Fuc(a1-2)Gal
Procedure, shortened: (§1)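 From the Consortium for Functional Glycomics database, 3228 arrays were curated, keeping only those whose protein sequence was available. Binding is given as a within-array Z-score averaged across arrays sharing a protein sequence and across linkers. Negative Z-scores can be read as non-binding.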

Fuc(a1-2)Gal(b1-3)GalNAc = molecular target: Fuc(a1-2)Gal(b1-3)GalNAc
Procedure, shortened: as §1

[1] = molecular target: Fuc(a1-2)Gal(b1-3)GalNAc(a1-3)[Fuc(a1-2)]Gal(b1-4)Glc
Procedure, shortened: as §1

[2] = molecular target: Fuc(a1-2)Gal(b1-3)GalNAc(a1-3)[Fuc(a1-2)]Gal(b1-4)GlcNAc
Procedure, shortened: as §1

[3] = molecular target: Fuc(a1-2)Gal(b1-3)GalNAc(b1-3)Gal
Procedure, shortened: as §1

[4] = molecular target: Fuc(a1-2)Gal(b1-3)GalNAc(b1-3)Gal(a1-4)Gal(b1-4)Glc
Procedure, shortened: as §1

[5] = molecular target: Fuc(a1-2)Gal(b1-3)GalNAc(b1-4)[Neu5Ac(a2-3)]Gal(b1-4)Glc
Procedure, shortened: as §1

Fuc(a1-2)Gal(b1-3)GlcNAc = molecular target: Fuc(a1-2)Gal(b1-3)GlcNAc
Procedure, shortened: as §1

[6] = molecular target: Fuc(a1-2)Gal(b1-3)GlcNAc(b1-2)Man(a1-3)[Fuc(a1-2)Gal(b1-3)GlcNAc(b1-2)Man(a1-6)]Man(b1-4)GlcNAc(b1-4)GlcNAc
Procedure, shortened: as §1

[7] = molecular target: Fuc(a1-2)Gal(b1-3)GlcNAc(b1-2)Man(a1-3)[Fuc(a1-2)Gal(b1-3)GlcNAc(b1-2)Man(a1-6)]Man(b1-4)GlcNAc(b1-4)[Fuc(a1-6)]GlcNAc
Procedure, shortened: as §1

[8] = molecular target: Fuc(a1-2)Gal(b1-3)GlcNAc(b1-3)Gal(b1-4)Glc
Procedure, shortened: as §1

[9] = molecular target: Fuc(a1-2)Gal(b1-3)GlcNAc(b1-3)GalNAc
Procedure, shortened: as §1

[10] = molecular target: Fuc(a1-2)Gal(b1-3)GlcNAc(b1-3)[Fuc(a1-2)Gal(b1-3)GlcNAc(b1-6)]GalNAc
Procedure, shortened: as §1

[11] = molecular target: Fuc(a1-2)Gal(b1-3)GlcNAc(b1-3)[Fuc(a1-3)[Gal(b1-4)]GlcNAc(b1-6)]Gal(b1-4)Glc
Procedure, shortened: as §1

[12] = molecular target: Fuc(a1-2)Gal(b1-3)GlcNAc(b1-3)[Gal(b1-4)GlcNAc(b1-6)]Gal(b1-4)Glc
Procedure, shortened: as §1

[13] = molecular target: Fuc(a1-2)Gal(b1-3)GlcNAc(b1-3)[Neu5Ac(a2-6)Gal(b1-4)GlcNAc(b1-6)]Gal(b1-4)Glc
Procedure, shortened: as §1

[14] = molecular target: Fuc(a1-2)Gal(b1-3)GlcNAc6S
Procedure, shortened: as §1

[15] = molecular target: Fuc(a1-2)Gal(b1-3)[Fuc(a1-4)]GlcNAc
Procedure, shortened: as §1

[16] = molecular target: Fuc(a1-2)Gal(b1-3)[Fuc(a1-4)]GlcNAc(b1-2)Man(a1-3)[Fuc(a1-2)Gal(b1-3)[Fuc(a1-4)]GlcNAc(b1-2)Man(a1-6)]Man(b1-4)GlcNAc(b1-4)GlcNAc
Procedure, shortened: as §1

[17] = molecular target: Fuc(a1-2)Gal(b1-3)[Fuc(a1-4)]GlcNAc(b1-2)Man(a1-6)[Fuc(a1-2)Gal(b1-3)[Fuc(a1-4)]GlcNAc(b1-2)Man(a1-3)]Man(b1-4)GlcNAc(b1-4)[Fuc(a1-6)]GlcNAc
Procedure, shortened: as §1

[18] = molecular target: Fuc(a1-2)Gal(b1-3)[Fuc(a1-4)]GlcNAc(b1-3)[Fuc(a1-3)[Gal(b1-4)]GlcNAc(b1-6)]Gal(b1-4)Glc
Procedure, shortened: as §1

[19] = molecular target: Fuc(a1-2)Gal(b1-3)[Fuc(a1-4)]GlcNAc(b1-3)[Gal(b1-4)GlcNAc(b1-6)]Gal(b1-4)Glc
Procedure, shortened: as §1

Fuc(a1-2)Gal(b1-4)Glc = molecular target: Fuc(a1-2)Gal(b1-4)Glc
Procedure, shortened: as §1

Fuc(a1-2)Gal(b1-4)Glc6S = molecular target: Fuc(a1-2)Gal(b1-4)Glc6S
Procedure, shortened: as §1

Fuc(a1-2)Gal(b1-4)GlcNAc = molecular target: Fuc(a1-2)Gal(b1-4)GlcNAc
Procedure, shortened: as §1

[20] = molecular target: Fuc(a1-2)Gal(b1-4)GlcNAc(b1-2)Man
Procedure, shortened: as §1

[21] = molecular target: Fuc(a1-2)Gal(b1-4)GlcNAc(b1-2)Man(a1-3)[Fuc(a1-2)Gal(b1-4)GlcNAc(b1-2)Man(a1-6)]Man(b1-4)GlcNAc(b1-4)GlcNAc
Procedure, shortened: as §1

[22] = molecular target: Fuc(a1-2)Gal(b1-4)GlcNAc(b1-2)Man(a1-3)[Fuc(a1-2)Gal(b1-4)GlcNAc(b1-2)Man(a1-6)]Man(b1-4)GlcNAc(b1-4)[Fuc(a1-6)]GlcNAc
Procedure, shortened: as §1

[23] = molecular target: Fuc(a1-2)Gal(b1-4)GlcNAc(b1-2)[Fuc(a1-2)Gal(b1-4)GlcNAc(b1-4)]Man(a1-3)[Fuc(a1-2)Gal(b1-4)GlcNAc(b1-2)Man(a1-6)]Man(b1-4)GlcNAc(b1-4)GlcNAc
Procedure, shortened: as §1

[24] = molecular target: Fuc(a1-2)Gal(b1-4)GlcNAc(b1-3)Gal(b1-4)GlcNAc
Procedure, shortened: as §1

B1: StcE (Escherichia coli), O82882.2 (protein)
chain: ADNNSAIYFNTSQPINDLQGSLAAEVKFAQSQILPAHPKEGDSQPHLTSLRKSLLLVRPVKADDKTPVQVEARDDNNKILGTLTLYPPSSLPDTIYHLDGVPEGGIDFTPHNGTKKIINTVAEVNKLSDASGSSIHSHLTNNALVEIHTANGRWVRDIYLPQGPDLEGKMVRFVSSAGYSSTVFYGDRKVTLSVGNTLLFKYVNGQWFRSGELENNRITYAQHIWSAELPAHWIVPGLNLVIKQGNLSGRLNDIKIGAPGELLLHTIDIGMLTTPRDRFDFAKDKEAHREYFQTIPVSRMIVNNYAPLHLKEVMLPTGELLTDMDPGNGGWHSGTMRQRIGKELVSHGIDNANYGLNSTAGLGENSHPYVVAQLAAHNSRGNYANGIQVHGGSGGGGIVTLDSTLGNEFSHEVGHNYGLGHYVDGFKGSVHRSAENNNSTWGWDGDKKRFIPNFYPSQTNEKSCLNNQCQEPFDGHKFGFDAMAGGSPFSAANRFTMYTPNSSAIIQRFFENKAVFDSRSSTGFSKWNADTQEMEPYEHTIDRAEQITASVNELSESKMAELMAEYAVVKVHMWNGNWTRNIYIPTASADNRGSILTINHEAGYNSYLFINGDEKVVSQGYKKSFVSDGQFWKERDVVDTREARKPEQFGVPVTTLVGYYDPEGTLSSYIYPAMYGAYGFTYSDDSQNLSDNDCQLQVDTKEGQLRFRLANHRANNTVMNKFHINVPTESQPTQATLVCNNKILDTKSLTPAPEGLTYTVNGQALPAKENEGCIVSVNSGKRYCLPVGQRSGYSLPDWIVGQEVYVDSGAKAKVLLSDWDNLSYNRIGEFVGNVNPADMKKVKAWNGQYLDFSKPRSMRVVYK
glycan array binding signal (z-score) (Fuc(a1-2)Gal): -0.233 | glycan array binding signal (z-score) (Fuc(a1-2)Gal(b1-3)GalNAc): -0.144 | glycan array binding signal (z-score) [1]: -0.142 | glycan array binding signal (z-score) [2]: -0.155 | glycan array binding signal (z-score) [3]: -0.591 | glycan array binding signal (z-score) [4]: -0.588 | glycan array binding signal (z-score) [5]: 0.19 | glycan array binding signal (z-score) (Fuc(a1-2)Gal(b1-3)GlcNAc): -0.202 | glycan array binding signal (z-score) [6]: 1.02 | glycan array binding signal (z-score) [7]: 1.21 | glycan array binding signal (z-score) [8]: -0.144 | glycan array binding signal (z-score) [9]: 0.003 | glycan array binding signal (z-score) [10]: 2.38 | glycan array binding signal (z-score) [11]: -0.115 | glycan array binding signal (z-score) [12]: -0.139 | glycan array binding signal (z-score) [13]: -0.161 | glycan array binding signal (z-score) [14]: 0.19 | glycan array binding signal (z-score) [15]: -0.082 | glycan array binding signal (z-score) [16]: -0.163 | glycan array binding signal (z-score) [17]: -0.1 | glycan array binding signal (z-score) [18]: -0.147 | glycan array binding signal (z-score) [19]: -0.167 | glycan array binding signal (z-score) (Fuc(a1-2)Gal(b1-4)Glc): -0.065 | glycan array binding signal (z-score) (Fuc(a1-2)Gal(b1-4)Glc6S): -0.155 | glycan array binding signal (z-score) (Fuc(a1-2)Gal(b1-4)GlcNAc): 0.056 | glycan array binding signal (z-score) [20]: -0.132 | glycan array binding signal (z-score) [21]: 0.128 | glycan array binding signal (z-score) [22]: 1.14 | glycan array binding signal (z-score) [23]: -0.002 | glycan array binding signal (z-score) [24]: -0.153
